{
  "source": "PubChem BioAssay AID2147",
  "about": "(National Center for Advancing Translational Sciences (NCATS), 2009)",
  "note": "Where “and” joins values, the source holds several entries; their conditions need not be identical. Equal values may be shown once. Screen size: about 230,000 compounds; about 3,600 (1.6%) were called active. This list was built around the results that the source calls inconclusive (neither active nor inactive); the mix of calls is not that of the screen. Calls follow the shape of the dose curve; as a rule, active = well fitted inhibition curve with a large enough effect (not every such curve was filed as active); inconclusive = small, poorly fitted or top-dose-only effect, or another doubt; inactive = no such curve, though single readings can be large or run the other way. Potencies beside an inconclusive call are fits to weak or partial responses and may not hold up. Also: nearly all actives have a fitted effect of over 50% in size.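 For activity change, negative = inhibition in this document: 0% = wells with enzyme and -100% = buffer wells without enzyme.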 Potency is read from the fitted curve at half-maximal effect; tags tell the direction and shape of the fitted curve.",
  "data": [
    {"biological_target": "Lysine-specific demethylase 4E (Homo sapiens) (UniProt B2RXH2)", "sequence (B2RXH2 whole entry, looked up, the tested form may be a part)": "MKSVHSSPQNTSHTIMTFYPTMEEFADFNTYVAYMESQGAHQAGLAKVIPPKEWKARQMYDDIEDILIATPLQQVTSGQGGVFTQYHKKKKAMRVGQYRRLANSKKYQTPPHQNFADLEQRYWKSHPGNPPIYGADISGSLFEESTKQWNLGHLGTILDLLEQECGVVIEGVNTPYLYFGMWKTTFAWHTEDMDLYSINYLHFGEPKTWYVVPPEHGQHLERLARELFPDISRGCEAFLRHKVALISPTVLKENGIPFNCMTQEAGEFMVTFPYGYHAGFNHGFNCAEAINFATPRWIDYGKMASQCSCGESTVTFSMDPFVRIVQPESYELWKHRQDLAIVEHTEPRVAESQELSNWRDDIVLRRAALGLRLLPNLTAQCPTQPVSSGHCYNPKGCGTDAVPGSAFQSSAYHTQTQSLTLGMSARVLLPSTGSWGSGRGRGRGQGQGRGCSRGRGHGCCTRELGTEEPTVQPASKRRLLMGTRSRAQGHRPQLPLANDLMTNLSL", "test": "qHTS Assay for Inhibitors of Human Jumonji Domain Containing 2E (JMJD2E)", "settings": "JMJD2E catalytic domain, FDH-coupled NADH fluorescence (FDH is formaldehyde dehydrogenase); series mostly up to 57.1 µM; activity change, negative = inhibition: at the top concentration", "values": [
      {"smiles": "Cc1ccc(-c2cc(C(F)F)n3ncc(C(=O)N4CCC5(CC4)OCCO5)c3n2)cc1", "Potency": "inconclusive: 35.5 µM [inhibitor, single point]"},
      {"smiles": "CCOC(=O)[C@@]1(C#N)[C@@H]2C=CC(C(N)=O)=CN2[C@@H](C(N)=O)[C@@H]1c1cccc(Cl)c1", "Potency": "inconclusive: 28.2 µM [inhibitor, partial curve]"},
      {"smiles": "CC(C)CC1C(=O)N2CCCC2C2(O)O[C@@](NC(=O)C3C=C4c5cccc6[nH]c(Br)c(c56)CC4N(C)C3)(C(C)C)C(=O)N12", "note": "(some centres not stated)", "Potency": "inconclusive: 28.2 µM [inhibitor, partial curve]"},
      {"smiles": "CCC12C=CCN3CCC4(c5ccc(OC)cc5N(C)C4[C@@](O)(C(=O)OC)C1OC(C)=O)C32", "note": "(some centres not stated)", "Potency": "inconclusive: 39.8 µM [inhibitor, single point]"},
      {"smiles": "CN1CCN(Cc2nnc3n2-c2ccc(Cl)cc2C(c2ccccc2)=NC3)CC1", "Potency": "inconclusive: 35.5 µM [inhibitor, single point]"},
      {"smiles": "c1cc2c(cc1CCNC1C3CC4CC(C3)CC1C4)OCO2", "note": "(configuration not stated)", "Potency": "inconclusive: 22.4 µM [inhibitor, single point]"},
      {"smiles": "Cc1ccc(-c2nc3ccc(C)cn3c2CC(=O)N(C)C)cc1", "Potency": "inconclusive: 31.6 µM [inhibitor, partial curve]"},
      {"smiles": "CN1CCN(Cc2ccccc2Sc2ccccc2)CC1", "activity change, negative = inhibition": "inactive: 5.65%"},
      {"smiles": "Cn1cc(C(=O)N2CCC3(CC2)OCCO3)c2c3ccccc3n(C)c2c1=O", "Potency": "inconclusive: 35.5 µM [inhibitor, partial curve]"},
      {"smiles": "COc1ccc(C(=O)Nc2ccccc2C(=O)NC(C(=O)NCc2ccco2)C(C)C)cc1", "note": "(configuration not stated)", "Potency": "inconclusive: 17.8 µM [inhibitor, single point]"},
      {"smiles": "CCOC(=O)C1=Nc2ccccc2/C1=C\\c1c(O)n(C)c(=O)n(C)c1=O", "Potency": "inconclusive: 22.4 µM [inhibitor, single point]"},
      {"smiles": "C[C@H]1CCC/C=C/C2C[C@H](O)CC2[C@H](O)/C=C/C(=O)O1", "note": "(some centres not stated)", "activity change, negative = inhibition": "inactive: 7.48%"},
      {"smiles": "N#C/C(=C(/O)c1ccc(S(=O)(=O)N(CCCl)CCCl)cc1)c1nc2ccccc2[nH]1", "Potency": "inconclusive: 28.2 µM [inhibitor, partial curve]"},
      {"smiles": "CCOC(=O)c1c(-c2ccc(OC)cc2)oc2ccc(OC(=O)N(C)C)cc12", "Potency": "inconclusive: 31.6 µM [inhibitor, partial curve]"},
      {"smiles": "CCCNC1=C(C)C(=O)C2=C(C1=O)C(COC(N)=O)[C@]1(OC)C3NC3CN21", "note": "(some centres not stated)", "Potency": "inconclusive: 25.1 µM [inhibitor, single point]"},
      {"smiles": "CC(ON1CC1(C(F)(F)F)C(F)(F)F)(C(N)=O)C(N)=O", "note": "(configuration not stated)", "activity change, negative = inhibition": "inactive: 7.04%"},
      {"smiles": "O=c1[nH]c(CN2CC=C(c3ccccc3)CC2)nc2cc(C(F)(F)F)ccc12", "Potency": "inconclusive: 22.4 µM [inhibitor, partial curve]"},
      {"smiles": "CC(Oc1ccc(Cl)cc1Cl)C(=O)Nc1ccc(S(=O)(=O)Nc2cnc3ccccc3n2)cc1", "note": "(configuration not stated)", "Potency": "inconclusive: 25.1 µM [inhibitor, partial curve]"},
      {"smiles": "Fc1ccccc1N1CCN(Cc2ccc3c(c2)OCO3)CC1", "Potency": "inconclusive: 39.8 µM [inhibitor, single point]"},
      {"smiles": "COc1ccc(-c2oc3cc(OC)ccc3c(=O)c2O)cc1", "Potency": "inconclusive: 31.6 µM [inhibitor, partial curve]"},
      {"smiles": "COc1ccc(CCn2c(O)c(C=Nc3cccc(F)c3)c(=O)[nH]c2=O)cc1OC", "Potency": "inconclusive: 39.8 µM [inhibitor, single point]"},
      {"smiles": "COC(=O)/C(C)=C\\CC12OC(C)(C)C3CC(C=C4C(=O)c5c(OC)c6c(c(CC=C(C)C)c5OC431)OC(C)(CCC=C(C)C)C=C6)C2=O", "note": "(configuration not stated)", "Potency": "inconclusive: 39.8 µM [inhibitor, single point]"},
      {"smiles": "Nc1ccc2c(c1)Cc1ccccc1-2", "Potency": "inconclusive: 28.2 µM [inhibitor, partial curve]"},
      {"smiles": "Nc1ccc(Cl)cc1C(=O)c1ccccc1Cl", "activity change, negative = inhibition": "inactive: 2.61%"},
      {"smiles": "Cc1ccccc1N1C(=O)CC(=O)NC1=O", "activity change, negative = inhibition": "inactive: -1.98%"},
      {"smiles": "CN1CCC(n2nccc2N)CC1", "activity change, negative = inhibition": "inactive: 1.62%"},
      {"smiles": "CCOc1ccc(OCC)c(NC(=O)CN2CCN(c3ccc(C)cc3C)CC2)c1", "Potency": "inconclusive: 28.2 µM [inhibitor, single point]"},
      {"smiles": "O=C(COc1ccccc1)N1CCN(CC2CC3C=CC2C3)CC1", "note": "(configuration not stated)", "Potency": "inconclusive: 25.1 µM [inhibitor, single point]"},
      {"smiles": "CCCCC(=O)N/N=C/c1c(O)n(Cc2ccc(F)cc2)c(=O)[nH]c1=O", "Potency": "inconclusive: 35.5 µM [inhibitor, single point]"},
      {"smiles": "C[C@H](N)[C@H](O)c1ccc(O)c(O)c1", "Potency": "active: 4.47 µM"},
      {"smiles": "CCN(CC)CCO[C@H]1CC[C@@]2(C)C(=CC[C@@H]3[C@H]2CC[C@]2(C)C(=O)CC[C@H]32)C1", "activity change, negative = inhibition": "inactive: -8.22%"},
      {"smiles": "Cc1nn(C2CCOC(C)(C)C2)c2c1C(c1ccc(OC(C)C)cc1)SCC(=O)N2", "note": "(configuration not stated)", "activity change, negative = inhibition": "inactive: -2.98%"},
      {"smiles": "CCN(CC)c1ncnc2c1ncn2[C@@H]1O[C@@H](COP(=O)(O)OP(=O)(O)C(Br)(Br)P(=O)(O)O)[C@H](O)[C@H]1O", "Potency": "inconclusive: 39.8 µM [inhibitor, single point]"},
      {"smiles": "Cn1cc(C(=O)c2ccccc2)c2ccccc21", "activity change, negative = inhibition": "inactive: -1.61%"},
      {"smiles": "C=CCN1C[C@H](C)N([C@H](c2ccc(C(=O)N(CC)CC)cc2)c2cccc(O)c2)C[C@H]1C", "activity change, negative = inhibition": "inactive: 7.82%"},
      {"smiles": "CN1C(=O)NC(=O)/C(=C\\C=C\\c2ccccc2[N+](=O)[O-])C1=O", "Potency": "inconclusive: 39.8 µM [inhibitor, single point]"},
      {"smiles": "CC1(CCl)CN1S(=O)(=O)c1ccccc1", "note": "(configuration not stated)", "activity change, negative = inhibition": "inactive: -1.54%"},
      {"smiles": "CCCCCCC[n+]1ccc(-c2cc[n+](CCCCCCC)cc2)cc1", "activity change, negative = inhibition": "inactive: -0.0553%"},
      {"smiles": "C[C@]12CC[C@@H](O)CC1CCC1C2CC[C@]2(C)C(=O)CC[C@@H]12", "note": "(some centres not stated)", "activity change, negative = inhibition": "inactive: 1.37%"},
      {"smiles": "O=C1NC(=O)C(=Cc2ccccc2Oc2ccc(F)cc2)C(=O)N1", "activity change, negative = inhibition": "inactive: -13.1%"},
      {"smiles": "COC(=O)C12CC3=CCC4C(=O)N(c5ccccc5)C(=O)C4C3Cc3ccccc3[C@@H]1CNC2=O", "note": "(some centres not stated)", "activity change, negative = inhibition": "inactive: 6.7%"},
      {"smiles": "CN1C(=O)C(=Cc2cc([N+](=O)[O-])ccc2N2CCCCC2)C(=O)N(C)C1=O", "activity change, negative = inhibition": "inactive: 6.51%"},
      {"smiles": "COc1ccc2[nH]c(C)c(CCN3CCC(=O)C(C)C3C)c2c1", "note": "(configuration not stated)", "Potency": "inconclusive: 35.5 µM [inhibitor, single point]"},
      {"smiles": "O=C(Oc1ccc(Cl)c2cccnc12)N1CCCCCC1", "Potency": "inconclusive: 35.5 µM [inhibitor, partial curve]"},
      {"smiles": "CCOC(=O)CN1C(=O)C2(C(C#N)=C(N)Oc3ccccc32)C(C(=O)OC)=C1C", "note": "(configuration not stated)", "activity change, negative = inhibition": "inactive: 11.6%"},
      {"smiles": "CC1=CC(=O)c2c(O)cccc2C1=O", "Potency": "active: 8.91 µM"},
      {"smiles": "Cc1cccc(N2CCc3c2nc2ccccc2c3N)c1", "Potency": "inconclusive: 31.6 µM [inhibitor, partial curve]"},
      {"smiles": "CCOc1cc(C=C2C(=O)NC(=O)NC2=O)ccc1OS(=O)(=O)c1ccccc1", "Potency": "inconclusive: 39.8 µM [inhibitor, single point]"},
      {"smiles": "CCCCn1c(NC(=O)c2ccco2)c(C(=O)OCC)c2nc3ccccc3nc21", "Potency": "inconclusive: 28.2 µM [inhibitor, partial curve]"},
      {"smiles": "O=C1NC(=O)C(=Cc2csc3ccccc23)C(=O)N1", "Potency": "inconclusive: 39.8 µM [inhibitor, single point]"},
      {"smiles": "Cn1c(=O)c(Oc2ccc(F)cc2)c(O)c2ccccc21", "Potency": "inconclusive: 31.6 µM [inhibitor, single point]"},
      {"smiles": "C/C(=N\\NP(=S)(c1ccccc1)c1ccccc1)c1ccc(O)cc1O", "activity change, negative = inhibition": "inactive: -12.5%"},
      {"smiles": "COCCN1C(=O)/C(=C/c2c(OC)cc(OC)cc2OC)C(=O)N(c2ccccc2)C1=O", "Potency": "inconclusive: 28.2 µM [inhibitor, single point]"},
      {"smiles": "CCCCCCNC(=O)N[C@H](Cc1ccc(O)cc1)C(=O)NCCC[C@H]1CN2C(=NC[C@H]2CCC)N1CC1CCC1", "Potency": "inconclusive: 28.2 µM [inhibitor, single point]"},
      {"smiles": "CC(=O)N1N=C(c2c(O)n(C)c(=O)n(C)c2=O)CC1c1ccccc1", "note": "(configuration not stated)", "Potency": "inconclusive: 39.8 µM [inhibitor, single point]"},
      {"smiles": "CN(N=O)c1ccc(O)c(O)c1", "Potency": "active: 10 µM"},
      {"smiles": "CC(=NCCN1CCOCC1)c1c(O)n(C2CCCCC2)c(=O)[nH]c1=O", "activity change, negative = inhibition": "inactive: -8.01%"},
      {"smiles": "CCCCCCN1CCN(c2ccccc2Cl)CC1", "Potency": "inconclusive: 31.6 µM [inhibitor, single point]"},
      {"smiles": "CCCN1CCC[C@@H]2Cc3nc(N)ncc3C[C@H]21", "Potency": "inconclusive: 39.8 µM [inhibitor, single point]"},
      {"smiles": "CC[C@]12C=CCN3CCC4(c5cc(Br)c(OC)cc5N(C)C4[C@@](O)(C(=O)OC)[C@@H]1OC(C)=O)C32", "note": "(some centres not stated)", "Potency": "inconclusive: 11.2 µM [inhibitor, partial curve]"},
      {"smiles": "O=C(O)c1ccccc1O", "Potency": "inconclusive: 25.1 µM [inhibitor, partial curve] and inconclusive: 28.2 µM [inhibitor, partial curve]"},
      {"smiles": "OCC1CCCN2CCCCC12", "note": "(configuration not stated)", "activity change, negative = inhibition": "inactive: -1.57%"},
      {"smiles": "Cc1ccc2c(CN3CC=C(c4ccccc4)CC3)cc(=O)oc2c1C", "Potency": "active: 25.1 µM"},
      {"smiles": "Cc1cccn2c(=O)c3c(nc12)N1CCCCC1C1(C3)C(=O)N(C)C(=O)N(C)C1=O", "note": "(configuration not stated)", "Potency": "inconclusive: 31.6 µM [inhibitor, single point]"},
      {"smiles": "CCC(C)n1c(O)c(/C=N/Nc2nc3c(c(=O)n(C)c(=O)n3C)n2C)c(=O)[nH]c1=S", "note": "(configuration not stated)", "Potency": "inconclusive: 28.2 µM [inhibitor, single point]"},
      {"smiles": "O=C(COc1ccc2ccccc2c1)N1CCN(Cc2c[nH]c3ccccc23)CC1", "Potency": "inconclusive: 31.6 µM [inhibitor, single point]"},
      {"smiles": "C/C1=C\\[C@@H](C)C/C=C/[C@H]2[C@@H]3O[C@]3(C)[C@@H](C)[C@H]3[C@H](Cc4c[nH]c5ccccc45)NC(=O)[C@]32C(=O)/C=C/C(=O)[C@@H]1O", "activity change, negative = inhibition": "inactive: -0.618%"}
    ]}
  ]
}
